Test results as given in paper PMC4558515, “Exploring the role of MKK7 in excitotoxicity and cerebral ischemia: a novel pharmacological strategy against brain injury” (Cell Death & Disease, 2015).

Columns and labels:
[1] = tested on: thromboembolic occlusion of the MCA in rats; assay: Thromboembolic ischemia model, functional neuroscore; assay type: in vivo, Sprague–Dawley rats; settings: 30 min before ischemia; 24 h after ischemia, versus control group; 5-point scale (Longa)
Method: Part II. Thromboembolic ischemia (n=7). Ischemia was induced by injection of autologous blood clots in suspension into the internal carotid artery (ICA), as described by Busch et al.[51] In order to prepare blood clots for embolism, femoral arterial blood from a donor rat was collected into a 20-cm long PE-50 catheter and retained for 2 h at room temperature, and subsequently at 4 °C for 22 h to allow clot formation to go to completion. Clots were pushed out of the catheter with a saline-filled syringe, rinsed several times in a Petri dish containing phosphate-buffered solution (PBS, pH 7.4), in order to remove blood cells and obtain a white clot, then inspected under the microscope to select fibrin-rich fragments. These fragments were cut into 2-mm-long pieces and transferred into a solution containing 1 mg/ml albumin in PBS, to allow clot retraction. Approximately 2 h later, 20 fibrin-rich fragments were drawn up in the albumin solution in 1-m-long PE50 catheter, taking care to maintain ~3 cm distance between clots in order to keep them apart, and all embolized into MCA origin.
After a longitudinal incision of 2 cm in length in the midline of the ventral cervical skin, left CCA, ICA and external carotid artery (ECA) were carefully dissected and exposed, avoiding any damage to the adjacent vagus nerve. […]

[2] = tested on: thromboembolic occlusion of the MCA in rats; assay: Thromboembolic ischemia model, infarct volume by TTC staining; assay type: in vivo, Sprague–Dawley rats; settings: 11 mg/kg, 30 min before lesion, 24 h post lesion
Method: Figure 7 GADD45β-I peptide protects against thromboembolic ischemia. Rats were pre-treated with vehicle (a) or GADD45β-I (11 mg/kg, 30 min before lesion) (b) and killed 24 h post lesion. Brains from control (a) and GADD45β−I-treated (b) rats were extracted and colored with TTC staining to show ischemic region. Images 6A–B are TTC-stained representative slices of the two experimental groups (scale bar=1 mm). In addition, we show a full reconstruction of the lesion size (blue shade on gray) obtained with contour analysis through Neurolucida software. (c) Percentage of ischemic volume was measured with Neurolucida software and Cavalieri's geometry Treated animals were compared with untreated animals. Data represent mean±S.D. (Student's t-test **P<0.05, n=3)
All treated rats underwent ICV administration (−1 AP, +2 ML, −3 DV), 30 min before or 6 h post lesion, of GADD45β-I (11 μg/μl) ipsilaterally to the lesion. […] Injection (2 μl volume) was made with a graduate glass pipette through an osmotic pump to minimize side effects.
Male adult Sprague–Dawley rats (Harlan, Lesmo, Italy) weighing 270–350 g were used in this study. […]

[3] = tested on: cortical neurons (100 μM NMDA-induced excitotoxicity); assay: LDH assay, neuroprotection against NMDA-induced excitotoxicity; settings: for protection against NMDA insult (LDH): 100 μM NMDA, n=6

## TAT-spacer-GADD45β60–86: cell-permeable MKK7 inhibitor peptide with spacer between TAT and GADD45β residues 60–86
[1]
  functional neuroscore, in words: significant improvements of the functional neuroscore
[2]
  reduction of infarcted volume: 50%
[2]; mean±S.D., n=3, control 18.88±4.38% (n=4)
  percentage of ischemic lesion on the whole brain volume: 9.47±1.96%
[3]; 1 μM peptide added 30 min before NMDA, 6 h
  protection against NMDA insult (LDH): 53%
[3]; 2.5 μM peptide added 30 min before NMDA, 6 h
  protection against NMDA insult (LDH): 64%
[3]; 5 μM peptide added 30 min before NMDA, 12 h
  protection against NMDA insult (LDH): 56%
[3]; in vitro
  neuroprotective effect against excitotoxicity compared with TAT-GADD45β69–86, in words: more potent neuroprotective effect against excitotoxicity
